In PubChem BioAssay AID720709 (National Center for Advancing Translational Sciences (NCATS), 2013):
The whole screen tested about 360,000 compounds, of which about 520 (0.14%) were called active. Inconclusive results, whose numbers are uncertain, are shown with a selection of clear calls. The call rests on the fitted dose curve; in most records, active means well fitted inhibition curve with a large enough effect; inconclusive means small, poorly fitted or top-dose-only effect; inactive means no such curve, though single readings can be large or run the other way. No potency is given beside an inconclusive call; the fits are too rough.

Target: Rap guanine nucleotide exchange factor 3 (Homo sapiens) (UniProt O95398)
UniProt O95398, sequence (O95398 whole entry, looked up): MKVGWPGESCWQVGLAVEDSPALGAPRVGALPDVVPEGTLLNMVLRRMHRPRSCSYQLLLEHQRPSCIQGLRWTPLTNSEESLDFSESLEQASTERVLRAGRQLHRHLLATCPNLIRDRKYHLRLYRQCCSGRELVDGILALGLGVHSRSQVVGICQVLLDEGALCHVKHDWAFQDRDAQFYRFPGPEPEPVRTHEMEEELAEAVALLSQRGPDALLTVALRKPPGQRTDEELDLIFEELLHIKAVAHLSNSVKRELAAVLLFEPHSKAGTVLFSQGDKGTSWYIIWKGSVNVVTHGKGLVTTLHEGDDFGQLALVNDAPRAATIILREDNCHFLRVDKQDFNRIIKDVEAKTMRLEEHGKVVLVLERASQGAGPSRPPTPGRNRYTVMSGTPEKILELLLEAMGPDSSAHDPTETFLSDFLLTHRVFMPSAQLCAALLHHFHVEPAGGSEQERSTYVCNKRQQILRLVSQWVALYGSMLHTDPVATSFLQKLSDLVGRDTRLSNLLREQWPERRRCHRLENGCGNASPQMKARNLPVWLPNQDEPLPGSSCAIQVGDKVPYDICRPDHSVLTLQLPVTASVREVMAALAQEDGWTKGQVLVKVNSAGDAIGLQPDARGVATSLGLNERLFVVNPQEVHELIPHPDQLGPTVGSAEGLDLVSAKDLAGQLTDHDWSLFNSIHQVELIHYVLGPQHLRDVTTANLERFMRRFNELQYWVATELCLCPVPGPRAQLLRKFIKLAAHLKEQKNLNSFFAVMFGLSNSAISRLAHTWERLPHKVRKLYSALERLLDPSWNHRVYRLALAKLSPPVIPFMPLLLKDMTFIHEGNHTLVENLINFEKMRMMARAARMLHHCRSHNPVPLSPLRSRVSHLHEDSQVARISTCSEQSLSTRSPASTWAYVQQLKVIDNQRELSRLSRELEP
Assay: qHTS for Antagonist of cAMP-regulated guanine nucleotide exchange factor 3 (EPAC1): primary screen; further: nearly all actives have a fitted effect of over 50% in size;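 on activity change, negative = inhibition: plate controls were vehicle for no effect and positive control for full effect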
Details: EPAC1 GEF assay, Rap1b-BODIPY-GDP exchange fluorescence; activity change, negative = inhibition: at 115 µM (top of the series)
Potency means the concentration at half of the fitted maximal effect; tags describe the fitted curve by direction and shape.

SMILES	Potency	activity change, negative = inhibition
CC(NC(=O)C(C)(C)C)C(c1cccs1)N1CCN(Cc2ccccc2)CC1 (configuration not stated)	inconclusive [inhibitor, single point]	–
COc1ccc(/C=N/NC(=O)c2cccc(NC(=O)c3ccc(F)cc3)c2)c(C(=O)O)c1OC	inconclusive [inhibitor, partial curve, poor fit]	–
COc1ccccc1Nc1ccc2c(O)cc(S(=O)(=O)O)cc2c1	inconclusive [inhibitor, partial curve, poor fit]	–
CCc1cc[n+](-c2nc([O-])sc2C=O)cc1	–	inactive: 8.08%
CN(CC(=O)NC(=O)Nc1ccccc1F)Cc1ccccc1	inconclusive [inhibitor, single point]	–
Cc1ccc(OCCOCCN(C)C)c(Cl)c1	inconclusive [inhibitor, partial curve]	–
O=C(O)c1cccc(NC(=S)N/N=C/c2ccccc2OCc2ccc(Br)cc2)c1	inconclusive [inhibitor, partial curve]	–
CCCCNC(=O)c1cc(-c2ccc3c(c2)OCO3)on1	inconclusive [inhibitor, single point]	–
CN(C)c1ccc(C=c2c3ccccc3n3c2c2c([n+]3C)CCCC2)cc1	inconclusive [inhibitor, full curve, poor fit]	–
c1ccc(OCc2cc(-c3ccccc3)no2)cc1	–	inactive: 1.66%
CC(Oc1cccnc1[N+](=O)[O-])C(=O)Nc1ccc(Cl)cn1 (configuration not stated)	inconclusive [inhibitor, partial curve]	–
Nc1nonc1-n1nnc(C(=O)N/N=C/c2ccc(Cl)cc2Cl)c1CN1CCCC1	inconclusive [inhibitor, full curve, poor fit]	–
CCOC(=O)C1(C)CCCCN1C(=O)c1cccc(Cl)c1 (configuration not stated)	–	inactive: -27.4%
CC(C)C[C@@H](CN)NC(=O)c1nc[nH]c1C(=O)N[C@@H](C)C(=O)CNC[C@H](C)NC(=O)c1nc[nH]c1C(=O)N[C@@H](C)C(=O)O	inconclusive [inhibitor, single point]	–
C[C@@H](NC(=O)C1(c2ccccc2)CCN(C(=O)OC(C)(C)C)CC1)C(=O)N[C@@H](C(=O)O)c1ccccc1	active: 56.2 µM	–
COC(=O)N/N=C/c1cn(CCCOc2ccccc2)c2ccccc12	inconclusive [inhibitor, full curve, poor fit]	–
COc1ccc(/C=C2\C(=O)NC(=O)c3ccccc32)cc1OC	inconclusive [inhibitor, full curve]	–
O=S(=O)(Nc1ccc(C(O)(C(F)(F)F)C(F)(F)F)cc1)c1ccc(Cl)c2nonc12	inconclusive [inhibitor, partial curve]	–
O=C(CCNS(=O)(=O)c1cccc2nsnc12)NCc1ccc(F)cc1	inconclusive [inhibitor, single point]	–
COc1cccc(OC)c1C(=O)NC(=S)NNC(=O)[C@H]1C[C@@H]1c1ccccc1	inconclusive [inhibitor, partial curve, poor fit]	–
CCN(CC)S(=O)(=O)c1cc(NC(=O)C(C)N(C)CC(=O)Nc2c(C)cccc2C)ccc1C (configuration not stated)	inconclusive [inhibitor, single point]	–
CC(C)Cc1cc(C(=O)Nc2cccc(O)c2)no1	inconclusive [inhibitor, single point]	–
Nc1ccc2c(c1)C(=O)C(=O)c1ccccc1-2	inconclusive [inhibitor, full curve]	–

SMILES	Potency	activity change, negative = inhibition
CCc1ccccc1Nc1nc(-c2cccnc2)cs1	inconclusive [inhibitor, full curve, poor fit]	–
O=C(/C=C/c1ccco1)N(Cc1ccccc1)C1CCS(=O)(=O)C1 (configuration not stated)	–	inactive: 10.2%
COc1ccccc1-c1nnc(SCC(=O)c2ccc(C3CCCCC3)cc2)n1Cc1ccco1	inconclusive [inhibitor, single point]	–
Cc1ccc(S(=O)(=O)NNC(=O)NC23CC4CC(CC(C4)C2)C3)cc1	inconclusive [inhibitor, full curve, poor fit]	–
COc1ccc(NC(=O)CCCNC(=O)c2ccc(Cl)cc2)cc1S(=O)(=O)N1CCOCC1	–	inactive: -10.3%
CC(C)Cn1c(=O)c2c(c3ccccc31)OC(C)C(=O)N2 (configuration not stated)	inconclusive [inhibitor, partial curve]	–
Cc1ccc(S(=O)(=O)Nc2ccc3c4c(cccc24)CC3)c(C)c1	inconclusive [inhibitor, partial curve]	–
COC(=O)c1sccc1NC(=O)Nc1cc(C)cc(C)c1	inconclusive [inhibitor, partial curve, poor fit]	–
Cn1c(=O)c2c(-c3ccccc3)n(-c3ccc(N)cc3)cc2n(C)c1=O	inconclusive [inhibitor, single point]	–
Cc1cccc(NS(=O)(=O)c2ccc(C(=O)N3CCCCCC3)cc2)c1C	inconclusive [inhibitor, single point]	–
Clc1ccc(-c2nnc(-c3ccc4ccccc4c3)o2)cc1	–	inactive: -1.27%
CCOc1ccc(Br)cc1CNCc1cccnc1	inconclusive [inhibitor, single point]	–
CN(C(=O)COc1ccccc1C(=O)NCCOc1ccccc1)c1ccccc1	inconclusive [inhibitor, single point]	–
CCCCCCSC1=C(C#N)C(c2ccc(O)cc2)CC(=O)N1 (configuration not stated)	inconclusive [inhibitor, partial curve]	–
CCN(CC)c1ccc(/C=N/N2CC(=O)NC2=S)cc1	–	inactive: 16.9%
CCCc1cc(=O)n2[nH]c(-c3ccc(Cl)cc3)cc2n1	–	inactive: -8.35%
Cc1c(-n2c(=O)n(Cc3ccccc3)c(=O)c3[nH]cnc32)cccc1S(C)=O (configuration not stated)	–	inactive: 2.35%
CC(C)C1Nc2ccc(C(=O)N3CCN(c4ccccn4)CC3)cc2NC1=O (configuration not stated)	–	inactive: -10.4%
O=C(CCl)N1CCN2C(=O)c3ccccc3C12c1ccc(Cl)cc1 (configuration not stated)	inconclusive [inhibitor, partial curve]	–
CC1CC2=C(NC(=S)NC2c2cccc(F)c2)/C(=C/c2cccc(F)c2)C1 (configuration not stated)	–	inactive: -4.61%
CNCc1ccccc1Sc1cccc(O)c1	–	inactive: 9.61%
FC(F)Sc1ccc(NC(=S)NCC2CCCCC2)cc1	–	inactive: -7.95%
O=[N+]([O-])c1cc(CN2CCOCC2)c2cccnc2c1O	inconclusive [inhibitor, full curve]	–

SMILES	Potency	activity change, negative = inhibition
Cc1nccn1CC(=O)N/N=C/c1c[nH]c2ccccc12	inconclusive [inhibitor, full curve, poor fit]	–
COc1ccc(N(CC(=O)Nc2ccc3c(c2)OCCO3)S(=O)(=O)c2c(C)noc2C)cc1	inconclusive [inhibitor, full curve, poor fit]	–
COc1ccc(CNC(=O)CN2CCN(c3cccc(C)c3C)CC2)cc1	–	inactive: 6.44%
CCOc1ccc2c(c1)C(NC(C)=O)C(=O)N2CCN1CCOCC1 (configuration not stated)	inconclusive [inhibitor, partial curve]	–
CCOc1ccc(S(=O)(=O)N(C)CC(=O)NCc2ccccn2)cc1	–	inactive: 1.68%
COc1ccc(C(C(=O)NCC2CCCO2)N(Cc2ccccc2)C(=O)CNC(=O)c2ccco2)cc1OC (configuration not stated)	inconclusive [inhibitor, full curve]	–
O=c1cc(N2CCN(c3ccc(F)cc3)CC2)[nH]c(=O)n1Cc1ccc(F)cc1	inconclusive [inhibitor, single point]	–
O=C(Nc1cccc(Cl)c1)N1N=CCC1c1ccccc1 (configuration not stated)	inconclusive [inhibitor, single point]	–
COC(=O)c1ccc(CSc2nc3ccccc3c(=O)n2C)o1	inconclusive [inhibitor, single point]	–
CCOC(=O)C1C(=O)CC(C)(O)C(C(=O)OCC)C1c1ccc([N+](=O)[O-])cc1 (configuration not stated)	inconclusive [inhibitor, partial curve]	–
CC(C)c1ccc(N(C(=O)c2csnn2)C(C(=O)NC(C)(C)C)c2cccnc2)cc1 (configuration not stated)	inconclusive [inhibitor, single point]	–
COC(=O)C1=C(C)Nc2sc(C(N)=O)c(N)c2C1c1ccncc1 (configuration not stated)	inconclusive [inhibitor, single point]	–
O=c1nc(/C=C/c2ccc(O)c(O)c2)oc2ccccc12	inconclusive [inhibitor, partial curve]	–
CC(C)Oc1ccc(C(=O)NCCNC(=O)c2ccco2)cc1	–	inactive: 8.38%
Cc1cc(C)cc(NC(=O)c2ccc(S(=O)(=O)C(F)F)cc2)c1	inconclusive [inhibitor, full curve, poor fit]	–
COc1ccc(NC(=O)C(Sc2ccccc2)c2ccccc2)c(OC)c1 (configuration not stated)	inconclusive [inhibitor, full curve, poor fit]	–
CCN(CC)CCN1C(=O)C(O)=C(C(=O)c2cc3cccc(OC)c3o2)C1c1cccs1 (configuration not stated)	inconclusive [inhibitor, single point]	–
COc1ccc(-n2c(SCC(=O)Nc3ccc(Br)cc3)nc(O)cc2=O)cc1	inconclusive [inhibitor, partial curve]	–
CC1CCc2nc(NC(=O)c3cc(C(C)(C)C)nn3C)sc2C1 (configuration not stated)	inconclusive [inhibitor, full curve, poor fit]	–
COCCNC(=O)C(OC(=O)c1nsc(Cl)c1Cl)C(C)C (configuration not stated)	–	inactive: -4.42%
Cc1ccc(S(=O)(=O)Nc2ccc(O)c(Sc3ncn[nH]3)c2)cc1	–	inactive: 18.1%
